# Source: PMC12136788
# The list shows a part of the results.
# T1: UNK ZnF1-3 (human, UniProt Q9C0B0 31-174)
# T1 sequence: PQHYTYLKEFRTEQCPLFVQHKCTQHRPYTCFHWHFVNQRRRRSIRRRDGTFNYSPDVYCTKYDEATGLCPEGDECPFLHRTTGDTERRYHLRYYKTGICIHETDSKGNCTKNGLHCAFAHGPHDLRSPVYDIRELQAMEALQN
# B1: chr22:19452774:19452775:-_ENSG00000070010_ENST00000399523|hu_hu|hu_hu_hu_mus_False|1_38 (ssRNA)
# RNA: GGGAGUUCUACAGUCCGACGAUCCUUCUCAUUGUAGUUGAUAGCAAUCACAUCUCCAGUCGUCAGACAGGCGAAGUUUCUCAAUGCAUUUUCUAAUACGGCUUUGGGGUUGGUAAUAUCCAGGAAGUCUGGGCUCUGAGGUUGCAACAGAGGAUUGAGCAUCA
# B2: 165880688_165880808_2178_3pUTR_ENSMUSG00000027678_ENSMUST00000088095|mouse|control|control (ssRNA)
# RNA: GGGAGUUCUACAGUCCGACGAUCUUCUCUUGCAACAGAGACCCAUGCACAUUGGAGGUGGAAGACACUGUCCCUGAUGUUGAGGAGGACACUCCAGAGGGGCUGGUGACACUAACGGAAGAGUCUUUGCAGUUUGGAUCCAGGCAACAGAGGAUUGAGCAUCA
# B3: 80010050_80019531_730_3pUTR_ENSMUSG00000022024_ENSMUST00000054908|mouse|control|control (ssRNA)
# RNA: GGGAGUUCUACAGUCCGACGAUCUCAUUUUAAUUUCAAUCUUUGUUGAAAGUACUUUGAAUGUACUCUGUUCUGGUAUUAUAGGGUGGAGCAGCCUCAGCUUCAAACUGUAGUCUUCUCCAGCAGGAAUUUUCACCAAAGCAGCAACAGAGGAUUGAGCAUCA
# B4: 192206245_192214914_558_CDS_ENSG00000128641_ENST00000304164|human|control|control (ssRNA)
# RNA: GGGAGUUCUACAGUCCGACGAUCGUCAAAUUCAAUAUCCAUAUAUUUGCCAAAUCUAGAGGAGUUGUCAUUCCUUACAGUUUUGGCAUUUCCAAAAGCUUCCAGGACCGGGUUGGACUGUAAAAGCUGUUCUUUAACUUGAUUCAACAGAGGAUUGAGCAUCA
# B5: chr1:39494564:39494565:+_ENSG00000168653_ENST00000372967|hu_hu|hu_hu_hu_mus_True|28_28 (ssRNA)
# RNA: GGGAGUUCUACAGUCCGACGAUCAUGCAUUCGCCUCAUCGUUUUGUACCGAAGCAAGCACUCUUCGAAGUCAUCGAACUCUAUCUUGCACUCCUUUUUCGCCCGGGUAUAACCGAUCCCGUGUGCACACUCUAUCCACUCUUUCAACAGAGGAUUGAGCAUCA
# B6: 100648999_100653633_2881_CDS_ENSMUSG00000028532_ENSMUST00000030257|mouse|control|control (ssRNA)
# RNA: GGGAGUUCUACAGUCCGACGAUCCCUCAGUGUGAAGUCGAUACCCAUCACAGCCACGGUGUGCCCGGAAGACAGCUGUGUACUGGAUGAGUGAAUUGUGUGGCUGAUUGUCACGACAUAGCCAGCUCCUCCAACAUCCAGGUACAACAGAGGAUUGAGCAUCA
# B7: chr14:96997824:96997825:+_ENSG00000090060_ENST00000216277|hu_hu|FALSE|FALSE (ssRNA)
# RNA: GGGAGUUCUACAGUCCGACGAUCAUUUUUUAGCAGACUGUCAUCUCGUAGAUCCAAAUCUUCAGGAAUUGUCUGCAGUGCUAAUCUUGCAAACAAAAUAUCAAUCUCUAUCCCAUCAAAACAGAGUUUAAUAACUGGUACGAACAACAGAGGAUUGAGCAUCA
# B8: chr9:111175927:111175928:+_ENSMUSG00000046785_ENSMUST00000060711|mus_mus|FALSE|FALSE (ssRNA)
# RNA: GGGAGUUCUACAGUCCGACGAUCUCUUACAGAAAUAGGCGCAUAUUCCGGUUUAAAGCUAAAUGGAUUUGAGAAAAGUUCUAAGUCCUUUUUAAUGAACCUGAGGUCCUUAAAAUGUCUCUCAAAAUCUUUCUGUAGGCGGGACAACAGAGGAUUGAGCAUCA
# B9: chr17:57759655:57759656:+_ENSG00000141367_ENST00000269122|hu_hu|motif|central (ssRNA)
# RNA: GGGAGUUCUACAGUCCGACGAUCUCGAGCCUUCUUACGGGCCAUCUGCAAGUACUUCACCAGUUCUUCCCAGUUUCCACGGGUAUUGGCAGCCUGAACAACUUCCAUGUAGGAGGAAGGAUCAUCUGCUUUGAUAUAAGAAUCCAACAGAGGAUUGAGCAUCA
# B10: 152119959_152123208_800_CDS_ENSMUSG00000070348_ENSMUST00000093962|mouse|control|control (ssRNA)
# RNA: GGGAGUUCUACAGUCCGACGAUCGCGGUAGCAGGAGAGGAAGUUGUUGGGGCUGCCCAGGUUCAGGCCUUGCAUCGCAGCCACCACGCUCCCAGCAGCUACCAUGGAGGGUGGGUUGGAAAUGAACUUCACAUCUGUGGCACACAACAGAGGAUUGAGCAUCA
# B11: chr1:109474883:109474884:-_ENSG00000121940_ENST00000369970|hu_hu|FALSE|FALSE (ssRNA)
# RNA: GGGAGUUCUACAGUCCGACGAUCGGAGGUUGCAGUGAGCCGAGAUUGUACCACCUCACUCCAGCCUGGGUGACAGAGCAAAACUCUCAAAAAAAAGUAAAAUUUCAAAAAAGCUUCACAAUAUAAACCUUAAUUUUAAUGACACAACAGAGGAUUGAGCAUCA
# B12: chr22:32879901:32879902:+_ENSG00000100225_ENST00000397426|hu_mus|hu_hu_hu_mus_False|38_58 (ssRNA)
# RNA: GGGAGUUCUACAGUCCGACGAUCCUCUUCCAUACUCAUGGCAUCCUGAAUUGACUCAGCUUCAACAUUUUGACUAGGCCCUAACAUACUGUCAUCAUUCCAAACACCAAAUGGGGUGGCCUGUCCUUGGGAUGAAUCAGUCCCCAACAGAGGAUUGAGCAUCA
# B13: chr4:25749455:25749456:-_ENSG00000091490_ENST00000264868|hu_hu|hu_hu_hu_mus_False|1_8 (ssRNA)
# RNA: GGGAGUUCUACAGUCCGACGAUCGCACUAUGACCUCUAGAAAAAUCCACAGGGGGAAAAAAUGUAAACCAAUGUACAAUGUUAUCGCCUUCCCUGUGUGUGGAGUGUUUGUCUCAAGGCUCCUUCUUGCCUUAUAACUGCUAGCAACAGAGGAUUGAGCAUCA
# B14: 156817637_156819921_3628_CDS_ENSG00000055163_ENST00000521420|human|control|control (ssRNA)
# RNA: GGGAGUUCUACAGUCCGACGAUCCAUGUAUUUGUUCAGGAUGGCAAAAACCUCAUUGUUCAAGAUCUGAUACUUCCUGAUCCGGUCGGCCAUCUUCUUCAGGGGCACAUUCUUAAUGAUUUCAUCCUUCCCGUCCUGCCUCUGCAACAGAGGAUUGAGCAUCA
# Target: T1, UNK ZnF1-3
# Assay: nsRBNS (natural sequence RNA bind-n-seq); RBNS binding buffer (assumed for nsRBNS): 25 mM Tris pH 7.5, 150 mM KCl, 3 mM MgCl2, 0.01% Triton X-100, 500 ug/ml BSA, 20 U/ml SUPERase-In, 4 C; UNK is unkempt and MSI1 is Musashi-1; names of the RNAs are library labels; protein concentration not given here; high values mean tight binding
row,Binder,binding signal
1,B1,0.906 enrichment R
2,B2,1.02 enrichment R
3,B3,0.514 enrichment R
4,B4,1.08 enrichment R
5,B5,0.64 enrichment R
6,B6,0.776 enrichment R
7,B7,0.565 enrichment R
8,B8,0.957 enrichment R
9,B9,0.984 enrichment R
10,B10,0.907 enrichment R
11,B11,1.09 enrichment R
12,B12,1.21 enrichment R
13,B13,0.855 enrichment R
14,B14,0.619 enrichment R
